Results on 50 molecules are retold here after PubChem BioAssay AID686970 (National Center for Advancing Translational Sciences (NCATS), 2013).

The structures appear in SMILES notation. Among all 360,000 compounds or so, about 6,000 (1.7%) were called active. Inconclusive results (about 8%) are left out. Calls follow the shape of the dose curve; as a rule, active = well fitted cell-killing curve with a large enough effect; inconclusive = small, poorly fitted or top-dose-only effect, or effect the other way; inactive = flat fitted curve, though single readings scatter. The entries are a selection whose mix differs from that of the whole data set.
Potency is read from the fitted curve at half-maximal effect.

This assay can be described thus: qHTS for induction of synthetic lethality in tumor cells producing 2HG: qHTS for the HT-1080-NT fibrosarcoma cell line. Also: nearly all actives have a fitted effect of over 55% in size. The following applies: HT-1080-NT fibrosarcoma viability, CellTiter-Glo ATP luminescence, 48 h; series mostly up to 46.1 µM; activity, negative = less viability: at the top concentration. The source says:
Unbiased genomic sequencing for 22 glioma genomes found recurrent mutation of IDH1 on chromosome 2q33, a gene encoding the cytosolic isoform of IDH1 associated with the tricarboxylic acid cycle (TCA) that catalyzes the oxidative decarboxylation of isocitrate, yielding alpha-ketoglutarate and CO2 via NADP+ to NADPH conversion. Subsequent studies confirmed the recurrent IDH mutations in up to 70% of secondary gliomas and in 10% of AML cases. In addition, the somatic mutation of cancer-associated IDH1 is a point mutation resulting in various amino-acid substituents at Arginine132 (IDH1 R132), a key residue found in the enzyme's active site that when mutated, results in the loss-of-function in metabolizing isocitrate but confers a gain-of-function to produce the oncometabolite 2-hydroxyglutarate (2HG). This in effect defines IDH1 as an oncogene and provides an extraordinary opportunity to discover chemical probes against mutant IDH1 that may translate into much needed new therapies for glioma and AML patients.
This assay aims to perform a synthetic lethal screen for chemical probes specific for 2HG-producing tumor cells using matched paired cell lines (1) HT-1080-NT fibrosarcoma cell line that overproduces 2HG and (2) HT-1080-IDH1KD cell line which has IDH1 expression knocked-down. Desirable compounds are toxic to the NT fibrosarcoma cells but not to the IDH1KD cell line. The data in this AID corresponds to the results of the qHTS against the HT-1080-NT fibrosarcoma cell line.
[1] Dang L, Jin S, Su SM. IDH mutations in glioma and acute myeloid leukemia. Trends of Mol Med. 2010; 16(9): 387-97.
[2] Dang L et al. Cancer-associated IDH1 mutations produce 2-hydroxyglutarate. Nature. 2010; 465(7300):966.
NIH Molecular Libraries Probe Production Centers Network [MLPCN]
NIH Chemical Genomics Center [NCGC]
Assay Submitter (PI): Lenny Dang Ph.D., Agios Pharmaceuticals
Suspensions of trypsinized HT-1080-NT cells were dispensed into white, tissue culture-treated, solid 1536-well plates at 5uL/well (750 cells/well final concentration) in RPMI medium supplemented with 5% FBS. Plates were incubated at 37 degrees C for 2 hours, after which 23 nL of compounds or DMSO were delivered to each well using a pin tool. Plates were then incubated at 37 degrees C for an additional 48 hours. CellTiter-Glo viability reagent (Promega) was dispensed into wells (2.5uL/well) and incubated at room temperature for 10 minutes. The plates were measured on a PerkinElmer ViewLux plate reader for luminescent signal (clear filter, 1 sec exp). DMSO-treated control wells and media-only (no cells) control wells were used to normalize %Activity of identified toxic compounds; DMSO-treated wells corresponded to 0%Activity (100% viability), while media-only controls were used to normalize 100%Activity (0% viability).
Concentration-response curves were fitted to the signals arising from the resulting luminescence. The concentration-effect curves were then classified based on curve quality (r2), response magnitude and degree of measured activity, and compounds were subsequently categorized based on their curve class.
In general terms: Quantitative high-throughput screening tests each substance at several concentrations.
Regarding `Clc1cccc(N=C2NN=C(c3ccc4c(c3)OCCO4)CS2)c1`, the Potency was active: 10 µM. Consider `O[C@H]1CN(Cc2cccs2)[C@@H](c2ccc(Cl)cc2)C[C@@H]1n1cc(C2CC2)nn1`, for which the “activity, negative = less viability” value was inactive: 10.2%. Consider `CC(=O)CC1OC(=O)C(Br)=C1NCc1ccccc1` (stereo not given), for which the Potency was active: 3.55 µM.

On to `Cc1ccc(Cc2c(-c3ccco3)nc3ccc(Br)cn23)cc1`, for which the Potency was active: 18.4 µM. As to `CCOC(=O)[C@H]1[C@H]2COc3cc(OC)ccc3[C@@H]2N2C(=O)N(c3ccc(Br)cc3)C(=O)[C@@]12C`, the “activity, negative = less viability” value is inactive: 4.98%. On the same count and under the same terms, to `Cc1ccc2c(c1)c1c3n2CCNC3CCC1` (stereo not given) belongs inactive: -10.8%. Regarding `COc1ccc(NC(=O)C(=O)NCC2CCCN2S(=O)(=O)c2ccc(C)cc2)cc1` (stereo not given), the Potency is active: 0.206 µM. As to `CN/C(=C\[N+](=O)[O-])NCCSCc1ccc(CN(C)C)o1`, the “activity, negative = less viability” value is inactive: 27.6%. Turning to `O=C(Nc1ccc(CN2CCOCC2)cc1)c1ccc(-c2ccc(Br)cc2)o1`, the Potency is active: 14.1 µM. Regarding `CC(C)(C)OC(=O)C[C@@H]1C/C=C\C[C@@H](CC(=O)NCCO)C(=O)NC[C@H](c2ccccc2)OC1=O`, the “activity, negative = less viability” value is inactive: -5.77%. Same read-out and setting: the result for `c1cnc(N2CCN(Cc3ccc4c(c3)OCO4)CC2)nc1` reads inactive: 37%; that for `OCC[C@@H]1C[C@@H](O)[C@H](O)[C@]2(CCCc3ccccc3O2)O1`, inactive: -2.1%. Same read-out and setting: the result for `OCC[C@@H]1C[C@@H](O)[C@H](O)[C@]2(OCCc3ccccc32)O1` reads inactive: 6.85%; that for `CCO[C@@H]1OC(C(=O)NC2CC2)=C[C@H](c2ccccc2)[C@H]1CCCO`, inactive: -4.02%; that for `OCC[C@H]1C[C@@H](O)[C@H](O)[C@]2(OCCc3ccccc32)O1`, inactive: 0%.

For `O=C1N[C@@H](Cc2ccccc2)C(=O)N2[C@@H]1C[C@@]1(Br)c3ccccc3N(S(=O)(=O)c3ccccc3)[C@@H]21`, the “activity, negative = less viability” value is inactive: 10.2%. For `O=C(NCc1ccccc1)[C@H]1C[C@@H]1[C@H](NP(=O)(c1ccccc1)c1ccccc1)c1ccccc1`, the “activity, negative = less viability” value was inactive: -4.22%. Same read-out and setting: to `Cc1ccc(NC(=O)CN2CC(C)SC2=NC2CCCCC2)cc1` (stereo not given) belongs inactive: -27.7%. With `C[C@H](CCC(=O)O)[C@H]1CC[C@H]2[C@@H]3[C@H](O)C[C@@H]4C[C@H](O)CC[C@]4(C)[C@H]3C[C@H](O)[C@]12C`, the Potency entry is “inactive”.

For the molecule `C=CC[C@@H](CC(=O)N[C@H](CO)Cc1ccccc1)C(=O)NC[C@H](OC(=O)[C@@H](CC=C)Cc1ccc(F)cc1)c1ccccc1`, the “activity, negative = less viability” value is inactive: -21%. Regarding `CS(=O)(=O)N1Cc2cc(C(=O)NCC3CC3)nc(-c3cccc(-c4cccnc4)c3)c2[C@H]1CCO`, the “activity, negative = less viability” value is inactive: -6.39%. As to `CC(=O)NS(=O)(=O)c1ccc(N)cc1`, the “activity, negative = less viability” value is inactive: 7.09%. As to `COc1ccc(NC(=O)/C(C#N)=C/c2ccc(Br)o2)cc1`, the “activity, negative = less viability” value was inactive: 11.5%. As to `C[C@@H]1CN([C@H](C)CO)C(=O)CCCn2nncc2CO[C@H]1CN(C)Cc1ccncc1`, the “activity, negative = less viability” value is inactive: 11.3%. Turning to `CCOC(=O)[C@H](CCc1ccccc1)N[C@@H](C)C(=O)N1C(C(=O)O)C[C@@H]2CCC[C@@H]21` (stereo not given in full), the “activity, negative = less viability” value was inactive: 20.7%.

Take `COC(C[C@H](O)C[C@@H](O)[C@@H](C)OCc1ccccc1)OC`: the “activity, negative = less viability” value was inactive: -0.964%.

Consider `N#CC1=C(N)C(C#N)(C#N)[C@H](c2ccncc2)[C@H]2CN(C(=O)OCc3ccccc3)CC=C12`, for which the “activity, negative = less viability” value is inactive: -3.78%. The same measure, in the same setting: the result for `COC(C[C@H](O)C[C@H](O)[C@@H](C)OCc1ccccc1)OC` reads inactive: 21.5%; that for `O=C(CCCN1C(=O)/C(=C\c2ccccc2)SC1=S)Nc1ccccc1O`, inactive: -6.87%. For `C[C@@H]1C[C@H](Nc2ccccc2)c2ccccc2N1C(=O)c1cccnc1`, the “activity, negative = less viability” value is inactive: -11.7%. Still for that read-out and setting: the result for `CN1CCN(CCC=C2c3ccccc3Sc3ccc(S(=O)(=O)N(C)C)cc32)CC1` reads inactive: -0.159%. In the case of `COc1ccc(O)c(/C=N/NC(=S)NCCc2ccccc2)c1`, the Potency was active: 14.6 µM. `CCOC(=O)N1CC=C2C(C#N)=C(N)C(C#N)(C#N)[C@H](c3cccs3)[C@H]2C1`: the “activity, negative = less viability” value is inactive: -10.3%. On to `COc1cc(Nc2ccccn2)cc(C(=O)Nc2cccc(C(F)(F)F)c2)c1`, for which the “activity, negative = less viability” value is inactive: -15.5%.

On to `COc1ccc(-c2nc(NC(=O)c3ccc(OCC(=O)Nc4ccc(F)cc4)c(OC)c3)sc2C)cc1`, for which the Potency is active: 18.4 µM. On to `CCCN1C(=O)S/C(=C/c2ccc(N3CCOCC3)o2)C1=O`, for which the “activity, negative = less viability” value is inactive: 5.43%. Still for that read-out and setting: to `O=C1NC[C@@H](c2ccccc2)OC(=O)[C@@H](Cc2ccc(F)cc2)C/C=C\C[C@@H]1CC(=O)N(CCO)Cc1ccccc1` belongs inactive: 11.3%; to `CC(C)C[C@H]1CNC(=S)N1CC1CCCN1C[C@H](Cc1ccccc1)N1C[C@H](Cc2ccc(O)cc2)N(CC2CCCCCC2)C1=S` (stereo not given in full), inactive: -21.2%; to `COc1cc2nc(N3CCN(C(=O)[C@@H]4CCCO4)CC3)nc(N)c2cc1OC`, inactive: 0.537%. In the case of `CC(/C=C/c1cccs1)=C\C(=O)O`, the “activity, negative = less viability” value was inactive: 3.1%.

`CCOC(=O)c1[nH]c2ccc(F)cc2c1NC(=O)CN1CCN(C/C=C/c2ccccc2)CC1`: the Potency is active: 20.6 µM. As to `Brc1ccc2[nH]c3nc(SCCN4CCOCC4)nnc3c2c1`, the “activity, negative = less viability” value was inactive: -13.2%. In the case of `CC(C(=O)O)c1cccc(C(=O)c2ccccc2)c1` (stereo not given), the “activity, negative = less viability” value is inactive: 15.8%. `COc1ccc(NC(=O)CCN2C(=O)C3C4C=CC(C4)C3C2=O)cc1` (stereo not given): the “activity, negative = less viability” value is inactive: -13.5%. Still for that read-out and setting: the result for `CN1[C@@H]2CC[C@H]1CC(OC(=O)c1c[nH]c3ccccc13)C2` (stereo not given in full) reads inactive: -4.7%; that for `CCOC(=O)[C@@H]1[C@H]2COc3cc(OC)ccc3[C@@H]2N2C(=O)N(c3ccc(OC)cc3)C(=O)[C@]12C`, inactive: 0%; that for `C[C@@H](c1ccccc1)N1C[C@@H](COCc2ccccc2)Oc2cc(N3CCC[C@@H]3CO)ccc2S1(=O)=O`, inactive: 0.385%.

Turning to `O=C(/C=C/c1ccc([N+](=O)[O-])cc1)c1ccccc(=O)c1O`, the Potency is active: 6.51 µM. Regarding `CCCCCC(=O)N1C[C@@H](n2cc(COC(=O)c3ccccc3)nn2)[C@H](O)C[C@@H]1c1ccc(OC)cc1`, the “activity, negative = less viability” value was inactive: 2.58%. Turning to `NC(=O)c1oc2ccccc2c1NC(=O)c1ccc([N+](=O)[O-])o1`, the Potency was active: 1.46 µM.
